# PubChem BioAssay AID902 (National Center for Advancing Translational Sciences (NCATS), 2007)
# Out of some 130,000 compounds screened, about 1,900 (1.5%) were called active. Inconclusive results, whose numbers are uncertain, are shown with a selection of clear calls. The call rests on the fitted dose curve; in most records, active means well fitted cell-killing curve with a large enough effect; inconclusive means small, poorly fitted or top-dose-only effect; inactive means no such curve, though single readings can be large or run the other way. Potencies beside an inconclusive call are fits to weak or partial responses and may not hold up.
# Assay: qHTS Screen for Compounds that Selectively Target Cancer Cells with p53 Mutations: Cytotoxicity of p53ts Cells at the Nonpermissive Temperature; further: nearly all actives have a fitted effect of over 55% in size
# Details: H1299-p53A138V viability at 39C, ATP luminescence, 24 h; activity change, negative = cell killing: at 46.1 µM (top of the series)
# On the % scale 0 is the no-effect control and ±100 the full control effect; potency means the concentration at half of the fitted maximal effect; tags describe the fitted curve by direction and shape.
Structure (SMILES),Potency,"activity change, negative = cell killing"
O=C(Nc1cccnc1)c1cn(-c2ccccc2)nc1-c1cccs1,"inconclusive: 20 µM [cytotoxic, single point]",–
CC(=O)c1cc2c(cc1N/C(=N/S(=O)(=O)c1ccc(F)cc1)c1ccccc1)OCO2,–,inactive: 11.1%
COc1ccc(-c2nc3ccccc3s2)cc1NC(C)=O,"inconclusive: 2.51 µM [cytotoxic, full curve, poor fit]",–
Cc1c(C(=O)NCc2ccccc2Br)oc2ccc3c(c12)C(=O)CC(C)(C)O3,active: 15.8 µM,–
CC(C)c1ccc(NC(=O)C(Cc2ccccc2)NS(=O)(=O)c2ccc3c(c2)oc(=O)n3C)cc1 (stereo not given),"inconclusive: 12.6 µM [cytotoxic, single point]",–
c1ccc(-c2nc(-c3ccccn3)no2)cc1,active: 7.08 µM,–
O=C(NCCCN1CCN(c2ccc(F)cc2)CC1)c1ccc2nc(CCc3ccccc3)oc2c1,"inconclusive: 5.01 µM [cytotoxic, partial curve]",–
CCc1c(C)c(C#N)c2nc3ccccc3n2c1Nc1cccc(C(F)(F)F)c1,–,inactive: -11.1%
CCCN(CCC)c1ncnc2c1cnn2-c1ccc(OC)cc1,"inconclusive: 12.6 µM [cytotoxic, single point]",–
N[C@H](Cc1cccc(-c2ccccc2CP(=O)(O)O)c1)C(=O)O,–,inactive: 13.5%
COc1ccc(OC)c(NC(=O)c2cc3cc4ccc(C)cc4nc3s2)c1,"inconclusive: 3.16 µM [cytotoxic, single point]",–
CN1CCN(C2=Cc3ccccc3Sc3cc(F)c(F)cc32)CC1,"inconclusive: 17.8 µM [cytotoxic, single point]",–
Cc1ccc(C)c(Cn2cnc3ccccc3c2=O)c1,–,inactive: 32.2%
COc1ccc(OC)c(CCNC(=O)CN2C(=O)COc3ccc(S(=O)(=O)N4CCCCCC4)cc32)c1,"inconclusive: 15.8 µM [cytotoxic, partial curve]",–
O=C1CCCC=C1[C@@H](O)C1CCCCC1,–,inactive: 2.92% [at 9.22 µM]
COCC(=O)Nc1c(C(=O)Nc2ccccc2OC)oc2ccccc12,–,inactive: -14.3%
C=CCn1c(N)c(-c2nc3ccccc3n2C)sc1=S,–,inactive: 9.6%
CCOc1ccc(-c2cc(NC(=O)Nc3ccccc3C(F)(F)F)c(C(=O)OC)s2)cc1,"inconclusive: 12.6 µM [cytotoxic, single point]",–
CCCN1Cc2cccc(C(=O)Nc3ccc4c(c3)OCCO4)c2C1=O,–,inactive: 3.03%
CC(C)c1ccc(/C=C(\C#N)c2nc(-c3ccc(O)cc3)cs2)cc1,"inconclusive: 15.8 µM [cytotoxic, single point]",–
Cc1ccc2cc3c(N)c(C(=O)N4CCOCC4)sc3nc2c1,"inconclusive: 15.8 µM [cytotoxic, single point]",–
CCOC(=O)c1cccc(NC(=O)c2sc3nc[nH]c(=O)c3c2C)c1,"inconclusive: 10 µM [cytotoxic, partial curve]",–
CCOC(=O)Cc1csc(NC(=O)CSc2nnnn2-c2ccc(CC)cc2)n1,"inconclusive: 15.8 µM [cytotoxic, single point]",–
COc1ccc(-c2nnc(SC(=O)N3c4ccccc4Sc4ccccc43)o2)cc1,"inconclusive: 31.6 µM [cytotoxic, single point]",–

Structure (SMILES),Potency,"activity change, negative = cell killing"
CCCCCOc1ccc(C(=O)N(Cc2ccccc2)C2CCS(=O)(=O)C2)cc1 (stereo not given),–,inactive: -15.3%
Cc1ccc2nc(/C(C#N)=C/c3ccc(-c4cccc(Cl)c4)o3)[nH]c2c1,active: 3.98 µM,–
COc1cccc(NC(=O)COc2ccccc2C(N)=O)c1,active: 10 µM,–
CCCC(=O)N(C)c1nnc(-c2ccc(OC)cc2)s1,"inconclusive: 10 µM [cytotoxic, single point]",–
Cc1cc(NC(c2cccnc2)c2ccc3cccnc3c2O)no1 (stereo not given),"inconclusive: 3.98 µM [cytotoxic, full curve]",–
COc1ccc(-c2cccc(NS(=O)(=O)c3cc(C)c(Cl)cc3C)c2)nn1,–,inactive: -16.2%
Cc1cccc(C(CC(=O)NCC2(c3ccccc3)CCCC2)c2ccccc2)c1O (stereo not given),"inconclusive: 15.8 µM [cytotoxic, partial curve]",–
CN(C)c1ccc(CN(CC2CCCO2)C(=O)COc2ccc(Cl)cc2)cc1 (stereo not given),"inconclusive: 0.398 µM [cytotoxic, partial curve, poor fit]",–
Cc1cc(-n2c(=O)c(C#N)cc3c(=O)n4cccc(C)c4nc32)no1,–,inactive: 4.63%
CN(C)c1ccc(CNc2nc(-c3ccco3)nn2C(=O)c2cccc([N+](=O)[O-])c2)cc1,"inconclusive: 10 µM [cytotoxic, partial curve, poor fit]",–
NNC(=O)CS(=O)(=O)Nc1ncccn1,–,inactive: -3.51% [at 9.22 µM]
COc1ccc(NC(=O)CCCS(=O)(=O)c2nc(-c3ccc(OC)c(OC)c3)cc(C(F)(F)F)n2)cc1OC,active: 2.51 µM,–
Cc1ccc(NC(=O)c2ccco2)c(OCc2cc(=O)n3cc(C)sc3n2)c1,–,inactive: -3%
Cc1ccc(SCC(=O)Nc2ccc3oc(-c4cccc(C)c4)nc3c2)cc1,–,inactive: -10.7%
CCOc1ccc(-c2ccc(CO)o2)cc1N,"inconclusive: 3.98 µM [cytotoxic, partial curve]",–
O=C(NCCCN1CCN(c2ccccc2)CC1)c1cc2c(s1)-c1ccccc1OC2,"inconclusive: 12.6 µM [cytotoxic, single point]",–
COc1ccccc1N1CCN(C(=O)CSc2nc(-c3ccc(C(C)C)cc3)no2)CC1,"inconclusive: 12.6 µM [cytotoxic, partial curve]",–
C=C(C)COc1ccc(-c2[nH]ncc2Oc2ccccc2OC)c(O)c1,"inconclusive: 25.1 µM [cytotoxic, single point]",–
Cc1ccc(-c2nnc(Nc3ccc(Cl)cc3)c3ccccc23)cc1S(=O)(=O)NCC1CCCO1 (stereo not given),–,inactive: -15.1%
COc1cc(OC)c(NC(=O)N2CCOc3ccc(C)cc32)cc1Cl,–,inactive: -8.79%
O=C(NCCCN1CCN(c2ccc(F)cc2)CC1)c1cc2c(s1)-c1ccccc1OC2,"inconclusive: 31.6 µM [cytotoxic, single point]",–
CCOC(=O)c1ccc2c(c1)N(CC(=O)Nc1cc(F)ccc1F)C(=O)c1ccccc1S2,"inconclusive: 1.58 µM [cytotoxic, partial curve]",–
CC1=C(C(N)=O)C(c2cccc(C)c2)n2nc(-c3ccc(Cl)cc3)nc2N1 (stereo not given),"inconclusive: 10 µM [cytotoxic, partial curve]",–
CCOC(=O)c1sc(NC(=O)COC(=O)CNC(=O)C2CCCCC2)c(C(=O)OCC)c1C,active: 3.16 µM,–

Structure (SMILES),Potency,"activity change, negative = cell killing"
CCOC(=O)c1ccc(NC(=O)c2nc(S(=O)(=O)Cc3ccccc3)ncc2Cl)cc1,active: 12.6 µM,–
Cc1nn(CCCC(=O)NCc2ccccc2)c(=O)c2c1sc1ccccc12,"inconclusive: 20 µM [cytotoxic, partial curve, poor fit]",–
CC(O)CNC(=O)C1CCN(Cc2ccc(OCc3ccccc3)cc2)CC1 (stereo not given),"inconclusive: 12.6 µM [cytotoxic, partial curve]",–
CC(C)(C)c1ccc(CN2C3=NCCCN3c3ccccc32)cc1,"inconclusive: 5.62 µM [cytotoxic, partial curve]",–
c1ccc2nc(-c3nc4ccccc4o3)ccc2c1,active: 5.01 µM,–
CNc1nnc(-c2cccc(N(C)C)c2)s1,"inconclusive: 12.6 µM [cytotoxic, partial curve]",–
CC1=CC(=C2C(=O)c3ccccc3C2=O)C=C(C)N1Cc1ccco1,"inconclusive: 10 µM [cytotoxic, partial curve]",–
CC(C)c1ccc(C2c3c(-c4ccccc4O)n[nH]c3C(=O)N2CCc2ccccc2)cc1 (stereo not given),active: 25.1 µM,–
COc1ccc(/C=C/C(=O)c2ccc[nH]2)c(OC)c1OC,"inconclusive: 3.55 µM [cytotoxic, partial curve, poor fit]",–
COc1ccc(-c2noc(CSc3nnc(-c4ccncc4)n3-c3ccccc3)n2)cc1,"inconclusive: 0.0251 µM [cytotoxic, full curve, poor fit]",–
Nc1c(-c2ccc(Cl)cc2)nnn1-c1ccccc1,"inconclusive: 10 µM [cytotoxic, partial curve]",–
Cc1ccc(-c2cc(C(=O)N3CCCC3)no2)cc1,active: 7.94 µM,–
COc1ccccc1C(=O)Nc1cc(-c2ccc(C)cc2)no1,"inconclusive: 15.8 µM [cytotoxic, single point]",–
Cc1ccccc1Cn1c(CN2CCN(c3cc(Cl)ccc3C)CC2)nc2c1c(=O)[nH]c(=O)n2C,"inconclusive: 20 µM [cytotoxic, partial curve]",–
O=C(CC(=O)c1ccccc1)Nc1ccc2c(c1)OCCO2,"inconclusive: 31.6 µM [cytotoxic, single point]",–
CC1Cc2cc(S(=O)(=O)CCC(=O)Nc3ccc(Cl)cc3F)ccc2N1C(=O)C1CC1 (stereo not given),–,inactive: -21.3%
O=C(O)CCN1C(=O)c2ccc(NC(=O)CSc3ccccc3)cc2C1=O,–,inactive: 14.9%
Cc1ccc(NC(=O)Cn2c(=O)oc3cc(S(=O)(=O)N4CCC(C)CC4)ccc32)cc1Cl,"inconclusive: 31.6 µM [cytotoxic, single point]",–
O=C(O)c1ccc(N2C(=O)c3[nH]nc(-c4ccccc4)c3C2c2cccc(F)c2)cc1 (stereo not given),–,inactive: 27.5%
COC(=O)[C@](C)(N)Cc1ccc(O)cc1,–,inactive: 12.2%
O=c1[nH]c(C2CCCN(S(=O)(=O)c3ccccc3Cl)C2)nc2c1nnn2Cc1ccc(OC(F)(F)F)cc1 (stereo not given),"inconclusive: 31.6 µM [cytotoxic, single point]",–
Cc1ccc(CCNC(=O)C2CC(=O)N(CCc3ccccc3)C2)cc1 (stereo not given),"inconclusive: 0.0316 µM [cytotoxic, full curve, poor fit]",–
